# Reference: PMC4336329 (PLoS ONE, 2015)
# The whole screen tested about 310,000 compounds, of which about 14,000 (4.5%) showed an effect of 50% or more. Effects have a minus sign here. The list shows a part of the results.
# Target: human ether-à-go-go-related gene (hERG) potassium channel (human, UniProt Q12809)
# Experiment: primary screen, population patch clamp on CHO cells stably expressing hERG
# 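Note: peak tail current of the secondary pulse compared with the same well before compound.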
# human ether-à-go-go-related gene (hERG) potassium channel, sequence (Q12809 whole entry, looked up): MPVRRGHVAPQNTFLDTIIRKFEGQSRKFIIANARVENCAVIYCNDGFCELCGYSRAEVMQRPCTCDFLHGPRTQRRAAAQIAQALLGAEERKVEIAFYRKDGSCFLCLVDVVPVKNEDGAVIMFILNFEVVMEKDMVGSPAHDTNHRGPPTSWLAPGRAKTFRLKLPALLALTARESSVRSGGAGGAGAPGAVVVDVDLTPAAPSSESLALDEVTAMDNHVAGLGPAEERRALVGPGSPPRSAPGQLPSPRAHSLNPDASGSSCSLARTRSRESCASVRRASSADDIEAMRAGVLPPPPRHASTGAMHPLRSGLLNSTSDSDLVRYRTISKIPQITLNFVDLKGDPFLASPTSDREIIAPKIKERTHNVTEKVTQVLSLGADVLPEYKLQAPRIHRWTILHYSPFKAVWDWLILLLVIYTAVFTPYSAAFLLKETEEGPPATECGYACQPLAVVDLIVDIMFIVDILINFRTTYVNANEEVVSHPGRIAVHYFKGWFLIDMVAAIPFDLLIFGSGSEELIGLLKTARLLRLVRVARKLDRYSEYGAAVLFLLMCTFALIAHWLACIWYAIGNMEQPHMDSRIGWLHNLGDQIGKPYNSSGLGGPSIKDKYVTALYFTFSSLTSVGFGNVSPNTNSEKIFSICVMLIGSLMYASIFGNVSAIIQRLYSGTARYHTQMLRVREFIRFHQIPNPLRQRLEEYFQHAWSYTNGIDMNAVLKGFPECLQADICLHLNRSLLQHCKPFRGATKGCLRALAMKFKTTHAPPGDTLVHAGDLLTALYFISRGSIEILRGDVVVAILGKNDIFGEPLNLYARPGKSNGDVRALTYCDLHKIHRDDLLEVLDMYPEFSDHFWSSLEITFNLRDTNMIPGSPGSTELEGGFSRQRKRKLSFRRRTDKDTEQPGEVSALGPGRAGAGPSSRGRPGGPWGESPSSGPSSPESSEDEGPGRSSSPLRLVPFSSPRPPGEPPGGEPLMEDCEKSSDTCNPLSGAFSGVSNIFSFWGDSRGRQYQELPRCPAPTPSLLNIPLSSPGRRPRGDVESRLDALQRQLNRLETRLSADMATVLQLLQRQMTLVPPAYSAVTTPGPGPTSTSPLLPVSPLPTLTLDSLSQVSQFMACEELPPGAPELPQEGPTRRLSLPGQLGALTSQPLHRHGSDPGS
row,Structure (SMILES),"hERG current change (%, negative = inhibition) at 10uM [%]"
1,Cc1cc(NC(=O)CSc2nnc(Nc3ccccc3C)s2)no1,-1.11
2,Cc1cc(N2CCCC2=O)ccc1S(=O)(=O)N1CCOCC1,3.6
3,CCS(=O)(=O)c1nc(S(=O)(=O)c2ccc(C)cc2)c(NCCCN2CCCC2=O)s1,-11.3
4,Cc1nn(Cc2ccccc2Cl)c(C)c1C(=O)NCc1ccco1,-2.41
5,CCN(CC(=O)Nc1ccccc1OC)C(=O)C1CC2C=CC1C2 (stereo not shown),18.2
6,COCCNC(=O)Cn1c(=O)oc2cc(S(=O)(=O)N3CC(C)CC(C)C3)ccc21 (stereo not shown),11.5
7,c1cncc(C2OCC3(CO2)COC(c2cccnc2)OC3)c1 (stereo not shown),17.9
8,COc1ccccc1Nc1nc(Cl)nc(NC(C)(C)C)n1,-22.8
9,CC(C)CCn1c(=O)c2ccccc2n2c(CCC(=O)NCC3CCCO3)nnc12 (stereo not shown),-1.79
10,Cc1cc(C)c(C(=O)OCc2csc(CC(=O)Nc3ccccc3C)n2)c(C)c1,-24.1
11,COc1ccccc1C1CC(=O)n2c(nc(-c3ccccc3)c2-c2ccccc2)S1 (stereo not shown),4.8
12,CN(C(=O)c1ccco1)c1nc2c(s1)CCCC2,-8.65
13,CS(=O)(=O)c1ccc(Sc2nc3ccccc3s2)c([N+](=O)[O-])c1,4.81
14,Cc1cc(NC(=O)c2noc3c2CCCC3)nn1Cc1ccc(Cl)cc1,6.42
15,O=C(NCC(c1ccco1)N1CCc2ccccc2C1)c1ccccc1Br (stereo not shown),-37.5
16,CC(C)[C@H](NC(=O)c1cccc(S(=O)(=O)N2CCCC2)c1)c1nc2ccccc2[nH]1,9.05
17,CCOC(=O)c1c(NC(=S)NC(=O)c2cnn(CC)c2)sc2c1CCC(C)C2 (stereo not shown),6.11
18,CCNC(=O)CSc1nc2ccccc2c(=O)n1-c1cc(OC)ccc1OC,3.82
19,Cc1sc(NC(=O)CSC2=NCCS2)nc1-c1ccccc1,6.49
20,CCOC(=O)/C=C1\SCC(=O)N1CC(=O)NC1CCCCC1,-3.71
21,O=S1(=O)CCOC[C@H](Cc2ccccc2)N1Cc1cccc(Cl)c1,-8.55
22,CN(CC(=O)Nc1cccc(F)c1)C(=O)CCCc1c[nH]c2ccccc12,-27.1

row,Structure (SMILES),"hERG current change (%, negative = inhibition) at 10uM [%]"
1,COc1cccc(COC(=O)C2CC(=O)N(Cc3ccc(C)cc3)C2)c1OC (stereo not shown),-28.7
2,Cc1nn(Cc2ccccc2Cl)c(C)c1C(=O)OCC(=O)NC1CCS(=O)(=O)C1 (stereo not shown),6.13
3,Cn1c(-c2cc(Cl)ccc2O)nc2c1c(=O)[nH]c(=O)n2Cc1ccccc1,12.8
4,CCN(CC)S(=O)(=O)c1ccc(/C=C/C(=O)Nc2ccc(N3CCOCC3)cc2)cc1,1.16
5,CC(C)CNC(=O)c1cc([N+](=O)[O-])ccc1N1CCCCC1,-10.6
6,CC(C)OP(=O)(OC(C)C)C(Nc1ccccc1)c1ccc2c(c1)OCO2 (stereo not shown),-19.8
7,CCOc1cc(C(=S)N2CCOCC2)ccc1OC(=O)c1ccc(C)cc1,6.19
8,Cc1ccc(-n2c(CNc3ccc(F)cc3)nnc2SCC(=O)N2CCOCC2)cc1,-35.4
9,Fc1ccccc1/C=N/Nc1cc(N2CCCCC2)ncn1,6
10,FC(F)(F)c1nc(Sc2ncccc2C(F)(F)F)n[nH]1,15.2
11,O=C(c1ccc2nc(Cc3ccccc3F)oc2c1)N1CC[C@H](O)C1,13.7
12,CC12CCCCC1NS(=O)(=O)OC2 (stereo not shown),14.8
13,CCOC(=O)c1ccc(S(=O)(=O)NCCN(CC)CC)cc1.Cl,11.4
14,CCN1CCCC1CN(Cc1cc2ccc(C)cc2[nH]c1=O)C(=S)Nc1ccc(OC)cc1OC (stereo not shown),-74.5
15,O=C(CN1C(=O)S/C(=C\c2cccc(Cl)c2)C1=O)NCCCn1ccnc1,-51.2
16,Cc1nc(SCc2ccc(Cl)c(Cl)c2)n[nH]1,13.6
17,O=C(Nc1ccc(CN2CCCCC2)cc1)c1ccc2c(c1)OCO2,-64.3
18,O=C(CSc1cn(CC(=O)N2CCCC2)c2ccccc12)NCC1CCCO1 (stereo not shown),9.72
19,COc1ccc(C(=O)NC(=S)Nc2ccc(N3CCOCC3)c(Cl)c2)cc1[N+](=O)[O-],2.76
20,CCOC(=O)c1c(NC(=S)Nc2ccccc2)sc2c1CCN(CC)C2,-81.5
21,Cc1sc2nc(C(C)C)nc(SCC(=O)NCc3ccco3)c2c1C,2.82
22,C=CCSC1=N/C(=C\c2ccc(C)o2)C(=O)S1,12.8

row,Structure (SMILES),"hERG current change (%, negative = inhibition) at 10uM [%]"
1,CCOc1ccccc1N1C(=O)CC(=O)NC1=O,17.3
2,Cc1ccc(OCCCC(=O)N2CCOCC2)c(C)c1,2.96
3,Cc1ccc(C(C)C)c(OCC(=O)Nc2ccc(N3CCN(S(C)(=O)=O)CC3)cc2)c1,1.13
4,Cc1nc(CS(=O)(=O)c2ccc(Cl)cc2)cc(Sc2ccc(Cl)cc2)n1,-10.4
5,Nc1nc(-c2ccccc2)cc(-c2ccccc2)n1,15.4
6,CC(C)(C)OC(=O)N1CCC[C@H]1C(=O)N/N=C/c1ccc2ncccc2c1,5.87
7,Cc1ccccc1Nc1nc(N)nc(CSc2nnc3ccccn23)n1,6.08
8,Cc1nc2ccccn2c1P(=O)(N1CCCCC1)N1CCCCC1,-6.79
9,CC(Cn1cncn1)C(=O)N1CCN(S(=O)(=O)c2ccccc2)CC1 (stereo not shown),20.5
10,CC(=O)Nc1cc(NC(C)=O)cc(C(=O)OCC(=O)Nc2ccc(S(=O)(=O)NC3=NCCCCC3)cc2)c1,2.8
11,Cc1onc(-c2ccccc2)c1C(=O)NCCc1ccncc1,9.21
12,O=C1c2ccccc2C(=O)N1OCc1c(F)cccc1Cl,3.25
13,CCOC(=O)c1ccc2nc(NC(C)=O)sc2c1,12.6
14,CC1(C)CC(=O)C(N=Nc2ccc(Cl)cc2)=C(O)C1,5.31
15,O=C(N1CCc2[nH]c3ccccc3c2C1)C(F)(F)F,15.7
16,CCc1ccccc1NC(=O)CSc1nnc([C@@H](NC(=O)OC(C)(C)C)C(C)C)o1,-17.1
17,Cc1cc(C(=O)N(C)Cc2c(F)cccc2Cl)c2ccccc2n1,-34.4
18,COc1ccc2oc(C(=O)OCC(=O)N(C)CC(=O)Nc3ccc(F)cc3)c(C)c2c1,-18.2
19,Nn1c(SCC(=O)Nc2ccc3c(c2)OCCO3)nnc(CCC(=O)O)c1=O,15.6
20,O=C(NC(C(=O)N/N=C/c1ccccc1)c1n[nH]c(=O)c2ccccc12)c1ccccc1 (stereo not shown),1.35
21,O=C(Nc1ccccc1)c1c(F)c(F)c(F)c(F)c1F,-2.93
22,COc1cccc(NS(=O)(=O)c2c(C)nc3sccn3c2=O)c1,-0.632

row,Structure (SMILES),"hERG current change (%, negative = inhibition) at 10uM [%]"
1,Cc1cc(-c2n[nH]c(=S)n2/N=C/c2ccccc2[N+](=O)[O-])n[nH]1,10.2
2,Cc1c(C(=O)OCC(=O)N(C)Cc2ccccc2)oc2ccccc12,-29.4
3,O=C(NCCN1CCOCC1)c1cc(-c2ccc(F)cc2)nc2ccccc12,-34.2
4,COc1cccc(/C=c2\s/c(=C\C(=O)C(C)(C)C)[nH]c2=O)c1,6.02
5,CC1CCN(C(=O)c2scc3c2OCCO3)CC1,-9.26
6,C=CCCCN(Cc1ccccc1)S(=O)(=O)c1ccccc1Br,11.3
7,Cc1ccc(C)c(NC(=O)C(=O)NCc2ccccn2)c1,-11.2
8,O=C(CSCCO)Nc1ccc(C2CCCCC2)cc1,-11.9
9,CC(NC(=O)CN1C(=O)NC2(CCCC2)C1=O)c1ccc2ccccc2c1 (stereo not shown),-0.803
10,Cc1ccc2nc(SCC(=O)Nc3ccc(C)c([N+](=O)[O-])c3)[nH]c2c1,9.81
11,N#CC12CCCCC1CC1CCCCC1(C#N)N2Cc1cccnc1 (stereo not shown),-35.5
12,Cc1ccccc1NC(=O)c1nn(-c2ccc(F)c(F)c2)ccc1=O,5.07
13,CCn1c(SCC(=O)Nc2sc3c(c2C#N)CCCC3)nnc1-c1ccncc1,-63.5
14,CCN(CC)C(=O)C1CCN(c2ncnc3c2cnn3-c2ccc(C)cc2C)CC1,-6.83
15,Cc1cc(Cl)c(S(=O)(=O)N2CC(C)OC(C)C2)cc1OCC(N)=O (stereo not shown),-19.8
16,Cc1cc(NC(=O)CSc2ccc3nnc(-c4cccc(F)c4)n3n2)no1,-14.3
17,CCC(CC)COC(=O)C(C#N)c1nc2ccccc2nc1N1CCN(CC)CC1 (stereo not shown),-72.7
18,COc1ccc(OC)c(NC(=O)c2ccc3c(=O)n(CCc4ccccc4)c(=S)[nH]c3c2)c1,8.23
19,CC1CCC(C(C)C)C2=C1C(C#N)(C#N)C(C#N)(C#N)C(c1ccccc1)N2 (stereo not shown),6
20,N=C1/C(=C/c2cccn2-c2cccc([N+](=O)[O-])c2)C(=O)N=C2SC=CN12,8.83
21,O=C(CNC(=O)c1cccs1)OCC(=O)c1ccc2ccccc2c1,14.2
22,COc1ccc(C(C[N+](=O)[O-])C2(c3ccc(OC)c(OC)c3)C(=O)c3ccccc3C2=O)cc1 (stereo not shown),-1.26
